Measured values from publication PMC4336329 (PLoS ONE, 2015).
The campaign covered roughly 310,000 compounds. About 2,200 (0.71%) showed an effect of 50% or more. The effect is printed as a negative number. Some of the results follow.

Biological target: human ether-à-go-go-related gene (hERG) potassium channel (human, UniProt Q12809)
Test: primary screen, population patch clamp on CHO cells stably expressing hERG

Chain of human ether-à-go-go-related gene (hERG) potassium channel (Q12809 whole entry, looked up): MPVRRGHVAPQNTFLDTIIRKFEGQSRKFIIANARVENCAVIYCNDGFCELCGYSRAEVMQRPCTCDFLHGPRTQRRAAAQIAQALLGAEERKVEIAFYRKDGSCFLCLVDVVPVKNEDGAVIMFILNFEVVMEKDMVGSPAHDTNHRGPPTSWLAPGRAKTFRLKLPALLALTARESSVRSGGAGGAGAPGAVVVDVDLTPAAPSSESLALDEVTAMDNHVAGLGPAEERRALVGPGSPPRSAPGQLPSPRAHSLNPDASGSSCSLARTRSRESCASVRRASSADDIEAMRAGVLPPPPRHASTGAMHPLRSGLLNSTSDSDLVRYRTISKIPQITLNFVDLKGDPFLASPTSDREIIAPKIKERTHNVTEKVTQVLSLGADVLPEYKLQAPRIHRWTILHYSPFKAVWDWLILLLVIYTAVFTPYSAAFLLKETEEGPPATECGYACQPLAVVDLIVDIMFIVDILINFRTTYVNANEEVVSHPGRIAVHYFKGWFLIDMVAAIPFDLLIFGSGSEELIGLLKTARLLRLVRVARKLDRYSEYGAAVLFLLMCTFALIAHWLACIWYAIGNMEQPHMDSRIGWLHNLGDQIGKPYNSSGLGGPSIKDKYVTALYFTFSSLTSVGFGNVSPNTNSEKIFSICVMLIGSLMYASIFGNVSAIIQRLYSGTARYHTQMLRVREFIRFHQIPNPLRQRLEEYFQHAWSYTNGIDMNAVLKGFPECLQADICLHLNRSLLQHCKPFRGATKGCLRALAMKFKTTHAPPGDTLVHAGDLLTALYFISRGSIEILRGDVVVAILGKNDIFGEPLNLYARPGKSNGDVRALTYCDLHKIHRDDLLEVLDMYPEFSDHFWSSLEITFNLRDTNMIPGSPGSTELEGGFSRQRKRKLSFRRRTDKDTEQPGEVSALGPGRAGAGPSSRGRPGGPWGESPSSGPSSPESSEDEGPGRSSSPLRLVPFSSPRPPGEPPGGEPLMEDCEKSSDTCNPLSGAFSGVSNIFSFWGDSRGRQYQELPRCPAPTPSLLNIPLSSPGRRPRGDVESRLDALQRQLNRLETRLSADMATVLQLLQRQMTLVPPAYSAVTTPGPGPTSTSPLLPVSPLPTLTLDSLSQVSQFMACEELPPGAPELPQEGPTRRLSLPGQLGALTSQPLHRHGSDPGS

Row | SMILES | hERG current change (%, negative = inhibition) at 1uM [%]
1 | O=[N+]([O-])CC(c1ccc(F)cc1)c1c[nH]c2ccccc12 (stereo not drawn) | 7.67
2 | CC(C)(C)C(=O)NC1CC2CCCC(C1)N2C(=O)Nc1ccccc1 (stereo not drawn) | 13.2
3 | Cc1ccccc1Cn1nc(C)c(NC(=O)c2cc(CC(C)C)on2)c1C | 6.85
4 | Cc1nc2c([nH]1)C1(CCN(Cc3ccccc3)CC1)C(C#N)=C(N)O2.Cl | -11.1
5 | O=S(=O)(c1cccc(NC(=S)N2CCN(c3ccccc3F)CC2)c1)C(F)F | 4.27
6 | CC1(C)SC(=S)N(c2ccccc2)C1/[N+]([O-])=C/c1cccc([N+](=O)[O-])c1 (stereo not drawn) | 12.7
7 | Cc1cc(C)cc(-n2c3nc4ccccc4nc3c3c(=O)n(Cc4ccco4)cnc32)c1 | 18.5
8 | S=C(NCCc1ccccc1)N/N=C/c1ccccc1Cl | 23.8
9 | CCCCCCOc1ccc(CN2CCN(CCO)CC2)cc1 | -14.3
10 | CCOC(=O)C1(CCCc2ccccc2)CCN(C(=O)CCn2cncn2)CC1 | -13.1
11 | CCCCCCn1c(=O)c(C(=O)N/N=C/c2cccc(F)c2)c(O)c2ccccc21 | 11.4
12 | CCc1ccc(NC(=O)Nc2ccc3c(c2)CCC3)cc1 | 10.9
13 | Cc1ccc(NCN2C(=O)C3CC=C(Cl)CC3C2=O)cc1 (stereo not drawn) | 10.9
14 | Cc1cccc(CCN2C(N(C)C)=NC[C@@H]2CC(C)C)c1 | 1.88
15 | COc1ccc(OC)c(NC(=O)CN2C(=O)COc3ccc(S(=O)(=O)N4CCCC4)cc32)c1 | 11.3
16 | CSc1cccc(NC(=S)N(Cc2ccc(C)cc2)Cc2cccnc2)c1 | 0.958
17 | O=C(c1cc(S(=O)(=O)N2CCN(c3ccccc3)CC2)ccc1Cl)N1CCCCCCC1 | 4.75
18 | CCOC(=O)C1=C(CSc2nc3c(cc2C#N)CN(C)CC3)OC(N)=C(C#N)C1c1ccc(F)cc1 (stereo not drawn) | 10.5
19 | COc1cccc(CN2CC(C(=O)N3CCCCCC3)CCC2=O)c1 (stereo not drawn) | 12.3
20 | COC(=O)C(CC(=O)c1ccc(Br)cc1)n1cccn1 (stereo not drawn) | 12.5
21 | CCCOc1ccc(S(=O)(=O)N2C(=O)CC(=O)N(Cc3ccc(OCC)cc3)C2=O)cc1 | 9.83
22 | CC(=O)/C(=N\Nc1ccccc1)Sc1nnc(-c2ccccc2)n1-c1ccccc1 | 3.94
23 | O=C(Oc1ccccc1C(=O)Oc1ccccc1)c1ccco1 | 14.2

Row | SMILES | hERG current change (%, negative = inhibition) at 1uM [%]
24 | CCC(=O)Nc1ccc(C(=O)NNC(=O)COc2cc(C)ccc2C)cc1 | 17.6
25 | COC(=O)c1ccc(C2C(Oc3ccccc3)C(=O)N2CCc2ccc(F)cc2)cc1 (stereo not drawn) | 10.7
26 | Cc1ccc(S(=O)(=O)C2(C(=O)Nc3ccc(C(C)C)cc3)CC2)cc1 | 13.7
27 | CCSc1nnc(NC(=O)[C@@H](NC(=O)c2ccccc2F)C(C)C)s1 | 4.72
28 | Cc1ccc(-n2c(C)cc3c2CC(C)(C)CC3=O)cc1C | 11.4
29 | CC(=O)c1ccc(OCc2cc(C(=O)NC3CCCCC3)no2)cc1 | 0.394
30 | O=C(NCCc1ccc(Cl)cc1)/C(=C/c1cccnc1)NC(=O)c1ccccc1 | -53.8
31 | Cc1cc(C)n2nc(SCc3ccccc3)nc2n1 | 5.58
32 | CC(=O)c1ccc(NC(=O)/C(=C\c2ccccc2)NC(=O)/C=C/c2ccccc2)cc1 | 1.35
33 | Cc1cc(NC(=O)c2ccccc2-c2ccccc2)ccc1Br | 3.66
34 | Cc1nn(CC(=O)O)c(=O)c2ccccc12 | 2.93
35 | O=C1CCCN2N=C(SCC(=O)Nc3ccc(F)cc3F)SC2=N1 | 5.43
36 | CC(=O)n1nc(-c2ccco2)nc1N | 10.2
37 | COc1cc(S(=O)(=O)N2CCCN(C)CC2)ccc1NC(C)=O | 16
38 | COc1ccc(/C=C2\SC(=S)N(CCCC(=O)Nc3ccc(C(=O)O)cc3)C2=O)cc1OC | -6.82
39 | O=C1COc2ccc(C(=O)COC(=O)c3ccccc3[N+](=O)[O-])cc2N1 | -1.13
40 | Fc1ccccc1Cc1nnc2n1N=C(c1ccc(Cl)cc1)CS2 | -8.16
41 | O=C(Oc1oc(-c2ccco2)nc1C=Nc1ccc(Cl)cc1)c1ccco1 | 8.3
42 | COc1cc(OC)cc(C(=O)N(Cc2cc3cc(C)ccc3[nH]c2=O)C(C)C)c1 | 2.31
43 | C/C(=N\OCC(=O)Nc1ccccc1C(=O)O)c1cccs1 | 15.4
44 | CC(=O)C1=C(O)CC(c2ccccc2)CC1=NCCc1ccccc1 (stereo not drawn) | 1.54
45 | COc1ccc(/C=N/NC(=O)c2ccc(COc3cccc4cccnc34)cc2)cc1OC | 2.59
46 | COc1cc(C(O)P(=O)(OC(C)C)OC(C)C)cc(OC)c1OC (stereo not drawn) | -7.22

Row | SMILES | hERG current change (%, negative = inhibition) at 1uM [%]
47 | COc1ccc(NC(=S)NC(=O)C2CCC2)cc1 | 12.8
48 | O=C(CSc1nnnn1C1CCCCC1)NCc1cccs1 | 4.39
49 | COc1ccc(S(=O)(=O)N2CCN(c3ccccc3OC)CC2)cc1C(=O)N1CCCCC1 | 10.6
50 | CCCOc1ccc(C(=O)ON=C2CCN(C)CC2)cc1.Cl | 10.9
51 | COC(=O)C(Cc1ccccc1)NC(=O)CNC(=O)c1ccccc1OC (stereo not drawn) | 8.29
52 | O=C(COc1ccc(Cl)cc1)NNC(=O)c1ccccn1 | 9.13
53 | O=C(NCC1CCCO1)c1onc(CSc2cccc(Cl)c2)c1C(=O)O (stereo not drawn) | 3.1
54 | Cc1cccc(C(=O)N2CCCC(N3CCN(c4ccccc4)CC3)C2)n1 (stereo not drawn) | 10.3
55 | CCC(=O)Nc1cccc(NC(=S)NC(=O)c2ccccc2)c1 | 0.4
56 | Cc1ccc(NC(=O)C(C)N2C(=O)c3ccccc3C2=O)cc1C (stereo not drawn) | 13.3
57 | Oc1ccccc1N1CCN(c2ncnc3sc(-c4ccccc4)cc23)CC1 | 1.79
58 | COC(=O)c1cnc2c(C(F)(F)F)cccc2c1OC | -4.9
59 | CCCn1ncc(CN2CCCC(C(=O)c3cccc(OC)c3)C2)c1C (stereo not drawn) | -21.4
60 | CCc1nc2ccccc2n1Cc1ccc(F)cc1 | 3.72
61 | CC(C)(C)CC(=O)Nc1cc(S(=O)(=O)N2CCCCCC2)ccc1Cl | 27.8
62 | CCOC(=O)c1[nH]c(C)c(CN(Cc2ccco2)C(=O)C(F)(F)F)c1C | 4.67
63 | CC1C(=O)C(C)C(c2cccc(Br)c2)NC1c1cccc(Br)c1 (stereo not drawn) | 15
64 | O=C(NC(=S)NCc1ccccc1)c1ccccc1 | 14.9
65 | N#Cc1cccc(CN2CCC(=O)N(CCO)CC2)c1 | 13.3
66 | CCc1nnc(NC(=O)c2ccc3c(c2)C(=O)N(CC)C3=O)s1 | 0.526
67 | O=C(NC1CCCC1)C(c1ccc(Cl)cc1)N(Cc1ccc(F)cc1)C(=O)CCl (stereo not drawn) | 17.8
68 | CCOc1ccc2c(O)csc2c1 | 19.1
69 | NNC(=O)Cn1cnc2ccccc21 | 3.34

Row | SMILES | hERG current change (%, negative = inhibition) at 1uM [%]
70 | O=C(Nc1ccc(F)cc1)Nc1nnc(Cc2ccccc2F)s1 | 5.91
71 | CS(=O)(=O)N1CCN(c2nc3ccc(Cl)cc3s2)CC1 | 11.1
72 | CN(CC(=O)Nc1cccc(F)c1)C(=O)C1CCN(C(=O)c2ccc(Cl)cc2)CC1 | -14.7
73 | CC(Oc1ccccc1F)C(=O)NCCN1CCCCC1 (stereo not drawn) | 8.89
74 | CN1C(=S)SC(C)(C)C1N(O)C(=O)Nc1ccc(Cl)cc1 (stereo not drawn) | 6.42
75 | CCN(CC)c1ccc(C(=O)Nn2cnc3ccccc3c2=O)cc1 | 9.56
76 | C=CCOC(=O)C1=C(C)OC(N)=C(C#N)C1c1ccccc1F (stereo not drawn) | -3.19
77 | CC1CC(C)CN(S(=O)(=O)c2ccc(C(=O)OCC(=O)NCCN3C(=O)CSC3=O)cc2)C1 (stereo not drawn) | 9.15
78 | COc1ccc(-c2nc(SCC(=O)NC3CCCCC3)n[nH]2)cc1 | -12.3
79 | CCN(Cc1ccccc1)C(=O)c1ccccc1C | 8.23
80 | CN=C1S/C(=C\c2ccc(OCC(=O)OC)c(OC)c2)C(=O)N1C | 13.7
81 | COc1ccccc1C(=O)Nc1ccc(Cc2ccncc2)cc1 | 7.7
82 | Cc1ccc(C(=O)N/C(=C/c2cccs2)C(=O)N2CCCCC2)cc1 | 10.6
83 | CCn1ccc(C(=O)Nc2ccc3c(c2)CCC3)n1 | 7.59
84 | C1COCCO1.O=C(Nc1cccc2ccccc12)C(=O)C1C(=O)Nc2ccccc21 (stereo not drawn) | 11.7
85 | COCn1c(COc2ccccc2)nc2ccccc21 | 7.09
86 | COc1ccc(CN2C(=O)c3cccnc3C2=O)cc1S(=O)(=O)NCc1ccc(C)o1 | 12.7
87 | Oc1ccccc1-c1cncn1Cc1ccccc1 | 8.6
88 | Cc1ccc(S(=O)(=O)[O-])cc1.Cn1cc[n+](C)c1COc1ccc(C=O)cc1 | 13.9
89 | FC(F)Oc1ccc(/C=N/n2c(Cc3ccc(Br)cc3)n[nH]c2=S)cc1 | 14
90 | CCc1c(C)nc2ccc(Br)cc2c1SCCC#N | 2.63
